First the molecules themselves.
B1: TEV protease; numbered along this chain (parent)
chain: MGESLFKGPRDYNPISSSICHLTNESDGHTTSLYGIGFGPFIITNKHLFRRNNGTLVVQSLHGVFKVKDTTTLQQHLVDGRDMIIIRMPKDFPPFPQKLKFREPQREERICLVTTNFQTKSMSSMVSDTSCTFPSGDGIFWKHWIQTKDGQCGSPLVSTRDGFIVGIHSASNFTNTNNYFTSVPKNFMELLTNQEAQQWVSGWRLNADSVLWGGHKVFMVKPEEPFQPVKEATQL

The list shows a part of the results. The full chains were built here from the parent and the listed change. Inactive controls read about 0.05.

The variants in the assay derive from B1. The experiment in a line: raw area under fraction-flipped curve 0-4 h after induction (AUC4h, not background-subtracted), DNA-recorder readout of cleavage of the substrate (dimensionless); higher = more cleavage of the substrate by the protease variant. To be noted: temperature: 34 °C; time window: 0-4 h after rhamnose induction. How it is done:
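In vivo DNA recorder in E. coli TOP10(DE3) ΔrhaA at 34 °C. Each TEVp single-site mutant (parent TEVp 0) is paired with a single-site variant of the 7-mer TEVs (canonical ENLYFQ|S). The substrate sits between flexible linkers in a Bxb1-sfGFP-TEVs-SsrA fusion, so cleavage stabilises Bxb1 and speeds flipping of a recombination array, read by NGS. The value is the raw area under the fraction-flipped curve over 0-4 h after rhamnose induction (AUC4h), with ≥20 reads per time point. It is not background-subtracted; inactive controls average about 0.047.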
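Also: Bxb1 expression induced with 0.2% (w/v) L-rhamnose at OD600 near 0.5, cultures sampled hourly, flipped fraction per protease–substrate barcode pair counted by paired-end Illumina sequencing.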

Regarding MGESLFKGPRDYNPISSSICHLTNESDGHTTSLYGIGFGPFIITNKHLFRRNNGTLVVQSLHGVFKVKDTTTLQQHLVDGRDMIIIRMPKDFPPFPQKLKFREPQREERICLVTTNFQTKSMSSMVSDTSCTFPSGDGIFWKHWIQTKDIQCGSPLVSTRDGFIVGIHSASNFTNTNNYFTSVPKNFMELLTNQEAQQWVSGWRLNADSVLWGGHKVFMVKPEEPFQPVKEATQL [G150I], the “area with substrate ENLYDQS” value is 0.0565, the “area with substrate ENLYEQS” value is 0.0591, the “area with substrate ENLYGQS” value was determined as 0.0619 and the “area with substrate ENLYHQS” value amounted to 0.0611. The “area with substrate ENLYIQS” value worked out at 0.0475, the “area with substrate ENLYKQS” value was determined as 0.0547, the “area with substrate ENLYMQS” value stood at 0.0477 and the “area with substrate ENLYNQS” value was found to be 0.058. Also, the “area with substrate ENLYPQS” value came to 0.0382, the “area with substrate ENLYQQS” value worked out at 0.0652, the “area with substrate ENLYRQS” value was determined as 0.0601 and the “area with substrate ENLYSQS” value was determined as 0.0628. The “area with substrate ENLYTQS” value came to 0.0667, the “area with substrate ENLYVQS” value was found to be 0.0648 and the “area with substrate ENLYWQS” value stood at 0.0524.
Consider MGESLFKGPRDYNPISSSICHLTNESDGHTTSLYGIGFGPFIITNKHLFRRNNGTLVVQSLHGVFKVKDTTTLQQHLVDGRDMIIIRMPKDFPPFPQKLKFREPQREERICLVTTNFRTKSMSSMVSDTSCTFPSGDGIFWKHWIQTKDGQCGSPLVSTRDGFIVGIHSASNFTNTNNYFTSVPKNFMELLTNQEAQQWVSGWRLNADSVLWGGHKVFMVKPEEPFQPVKEATQL [Q118R], for which the “area with substrate ENLYDQS” value amounted to 0.0546, the “area with substrate ENLYEQS” value was 0.0626, the “area with substrate ENLYGQS” value was 0.0624 and the “area with substrate ENLYHQS” value amounted to 0.0582. Besides, the “area with substrate ENLYIQS” value amounted to 0.131, the “area with substrate ENLYKQS” value was found to be 0.0632, the “area with substrate ENLYMQS” value came to 0.102 and the “area with substrate ENLYNQS” value came to 0.0838. Further, the “area with substrate ENLYPQS” value is 0.0684, the “area with substrate ENLYQQS” value came out at 0.0502, the “area with substrate ENLYRQS” value came to 0.0641 and the “area with substrate ENLYSQS” value worked out at 0.083. Besides, the “area with substrate ENLYVQS” value is 0.126.
With MGESLFKGPRDYNPISSSICHLTNESDGHTTSLYGIGFGPFIITNKHLFRRNNGTLVVQSLHGVFKVKDTTTLQQHLVDGRDMIIIRMPKDFPPFPQKLKFREPQREERICLVTTNFQTKSMSSMVSDTSVTFPSGDGIFWKHWIQTKDGQCGSPLVSTRDGFIVGIHSASNFTNTNNYFTSVPKNFMELLTNQEAQQWVSGWRLNADSVLWGGHKVFMVKPEEPFQPVKEATQL [C131V], the “area with substrate ENLYDQS” value came out at 0.0615, the “area with substrate ENLYEQS” value is 0.0648, the “area with substrate ENLYIQS” value is 0.106 and the “area with substrate ENLYMQS” value was determined as 0.107. The “area with substrate ENLYRQS” value amounted to 0.0354 and the “area with substrate ENLYVQS” value was found to be 0.0389.
On to MGESLFKGPRDYNPISSSICHLTNESDGHTTSLYGIGFGPFIITNKHLFRRNNGTLVVQSLHGVFKVKDTTTLQQHLVDGRDMIIIRMPKDFPPFPQKLKFREPQREERICLVTTNFQTKSMSSMVSDTSCTFPSGDGIFWKHWIQTHDGQCGSPLVSTRDGFIVGIHSASNFTNTNNYFTSVPKNFMELLTNQEAQQWVSGWRLNADSVLWGGHKVFMVKPEEPFQPVKEATQL [K148H], for which the “area with substrate ENLYDQS” value was determined as 0.0681, the “area with substrate ENLYEQS” value amounted to 0.0717, the “area with substrate ENLYGQS” value was 0.0577 and the “area with substrate ENLYHQS” value is 0.0714. Besides, the “area with substrate ENLYKQS” value amounted to 0.056, the “area with substrate ENLYLQS” value came out at 0.0786, the “area with substrate ENLYMQS” value was 0.0881 and the “area with substrate ENLYPQS” value came out at 0.0692. Also, the “area with substrate ENLYQQS” value is 0.0321, the “area with substrate ENLYRQS” value came out at 0.0637, the “area with substrate ENLYSQS” value amounted to 0.0612 and the “area with substrate ENLYTQS” value was determined as 0.0662. The “area with substrate ENLYVQS” value turned out to be 0.0992 and the “area with substrate ENLYYQS” value stood at 0.059.
Turning to MGESLFKGPRDYNPISSSICHLTNESDGHTTSLYGIGFGPFIITNKHLFRRNNGTLVVQSLHGVFKVKDTTTLQQHLVDGRDMIIIRMPKDFPPFPQKLKFREPQREERICLVTTNFQTKSMSSMVSDTSCTFPSGDGIFWKHWIATKDGQCGSPLVSTRDGFIVGIHSASNFTNTNNYFTSVPKNFMELLTNQEAQQWVSGWRLNADSVLWGGHKVFMVKPEEPFQPVKEATQL [Q146A], the “area with substrate ENLYDQS” value was 0.0417, the “area with substrate ENLYEQS” value came out at 0.0759, the “area with substrate ENLYGQS” value came out at 0.0501 and the “area with substrate ENLYIQS” value came to 0.158. The “area with substrate ENLYLQS” value turned out to be 0.0765, the “area with substrate ENLYMQS” value was 0.0938, the “area with substrate ENLYPQS” value was 0.0808 and the “area with substrate ENLYRQS” value turned out to be 0.0679. Moreover, the “area with substrate ENLYSQS” value was 0.0823, the “area with substrate ENLYVQS” value stood at 0.101 and the “area with substrate ENLYWQS” value was determined as 0.103.

Values taken from the supplement of paper PMC12217912.
